# Data reported in the supplement of paper PMC12009370.
# The list shows a part of the results. Single values are uncertain, as repeats are few or missing.
# Columns and labels:
# IMR-32 [1] = test: drug sensitivity score (DSS), single drug with vehicle (DSS (score)); higher = more cytotoxic; extreme values may be limits of the assay; details: 72 h; co-treatment: vehicle (DMSO)
# SK-N-AS [2] = test: as above; details: 72 h; co-treatment: vehicle (DMSO)
# SK-N-AS [3] = test: drug sensitivity score (DSS) in combination with SL-176 (DSS (score)); higher = more cytotoxic; extreme values may be limits of the assay; details: 72 h; co-treatment: SL-176 11.2 uM (IC25 in IMR-32)
# IMR-32 [4] = test: as above; details: 72 h; co-treatment: SL-176 11.2 uM (IC25 in IMR-32)
# SK-N-AS [5] = test: drug sensitivity score (DSS) in combination with GSK2830371 (DSS (score)); neuroblastoma lines; SL-176 and GSK2830371 are WIP1 inhibitors; higher = more cytotoxic; extreme values may be limits of the assay; details: 72 h; co-treatment: GSK2830371 at IC25 in IMR-32
# IMR-32 [6] = test: as above; details: 72 h; co-treatment: GSK2830371 at IC25 in IMR-32
# 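Wherever drug sensitivity score (DSS) in combination with GSK2830371 is given: neuroblastoma cells in 384-well plates, each compound at five concentrations, luminescence read-out, DSS derived from fitted concentration-response curve combining IC50 with minimum and maximum inhibition.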
# 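Wherever drug sensitivity score (DSS) in combination with SL-176 is given: cells in 384-well plates, luminescence read-out, each screening drug at five concentrations, DSS derived from the fitted concentration-response curve combining IC50 with minimum and maximum inhibition.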
# 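Wherever drug sensitivity score (DSS), single drug with vehicle is given: 384-well screen with five concentrations per compound and a luminescence read-out, DSS computed from the fitted dose-response curve combining IC50 with minimum and maximum inhibition.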
SMILES,drug sensitivity score (IMR-32 [1]),drug sensitivity score (SK-N-AS [2]),drug sensitivity score (SK-N-AS [3]),drug sensitivity score (IMR-32 [4]),drug sensitivity score (SK-N-AS [5]),drug sensitivity score (IMR-32 [6])
Cn1cc(CNCC2CCN(c3ncc(C(=O)NO)cn3)CC2)c2ccccc21 [Quisinostat],23.1,18.9,17.3,23.2,19,23
Cc1c(-c2ccc(N3CCc4cccc(C(=O)Nc5nc6ccccc6s5)c4C3)nc2C(=O)O)cnn1CC12CC3CC(CC(C3)C1)C2,7.8,0,0,9.4,0,6.9
Cc1cn(-c2cc(NC(=O)c3ccc(C)c(Nc4nccc(-c5cnccn5)n4)c3)cc(C(F)(F)F)c2)cn1 [Radotinib],0,2,3,15.6,1.6,0.5
Nc1cc(COc2c(Cl)cc(C[C@H](N)C(=O)O)cc2Cl)c2oc(-c3ccccc3)nc2c1,0,0,0,0.6,0.2,0.1
Cc1[nH]nc(C(F)(F)F)c1Cc1sc2c(c1C(=O)N1C[C@](C)(O)CO1)c(=O)n(C)c(=O)n2C(C)C,9.8,4.4,4.8,8.6,5.1,10.5
CCCC(CCC)C(=O)O [Valproic acid],0,0,0,0,0,0
CC#CC(=O)N1CC[C@@H](n2c(=O)n(-c3ccc(Oc4ccccc4)cc3)c3c(N)ncnc32)C1 [Tirabrutinib],0,0,0,0,0,0
Cc1nc(=O)c2cc(CN(C)c3ccc(C(=O)N[C@@H](CCC(=O)O)C(=O)O)s3)ccc2[nH]1 [Raltitrexed],20.1,1.9,2.5,15,2.2,21.2
CNC(=O)c1ccc(-c2cnc3ncc(Cc4ccc5ncccc5c4)n3n2)cc1F [Capmatinib],0,0,0,0,0,0
NC(=O)N1CCC(CC(=O)N2CCC([C@H]3c4ncc(Br)cc4CCc4cc(Cl)cc(Br)c43)CC2)CC1 [Lonafarnib],15.5,11.4,13.3,21.7,11.3,20.3
CCCCCOC(=O)Nc1nc(=O)n([C@@H]2O[C@H](C)[C@@H](O)[C@H]2O)cc1F [Capecitabine],0,0,0,0,0,0
O=C(Nc1cccnc1)N1CCC(Cc2cccc(Oc3ccc(C(F)(F)F)cn3)c2)CC1,0,1.4,1.2,0.2,0.2,0.1
Cn1cnc2c(F)c(Nc3ccc(Br)cc3F)c(C(=O)NOCCO)cc21 [Binimetinib],0,14.2,12.3,0,13.5,0
O=S(=O)(c1cccc2c(O)nccc12)N1CCCNCC1 [Hydroxyfasudil],0,0.2,0,0,0.1,0
Nc1nc2[nH]cnc2c(=S)[nH]1 [Thioguanine],8.3,10.9,10.8,9.7,10.3,15.9
CC(C)C[C@@H](C(=O)N[C@H](C(=O)OC1CCCC1)c1ccccc1)[C@H](O)C(=O)NO [Tosedostat],19.1,4.3,6.3,10.6,2.7,7.3
COc1cc2ncnc(Nc3ccc(F)c(Cl)c3)c2cc1OCCCN1CCOCC1 [Gefitinib],5.1,1.9,2,4.4,2.7,6
CCNCCS(=O)(=O)NC[C@@]1(c2ccccc2)SC(NC(=O)C(C)(C)C)=NN1C(=O)C(C)(C)C [Litronesib],30.5,22.6,22.2,30.6,24.1,31.2
Clc1ccc(Nc2nnc(Cc3ccncc3)c3ccccc23)cc1 [Vatalanib],0,0,0,0,0,0
Cc1nc(C(=O)NCC(=O)O)c(O)c2ccc(Oc3ccccc3)cc12 [Roxadustat],0,0,0,0,0,0.1
CC(=O)c1cc2c(o1)C(=O)c1ccccc1C2=O [Napabucasin],20.3,17.3,16.7,17.2,17.6,20.4
COc1cc(OC)c(/C=C/S(=O)(=O)Cc2ccc(OC)c(NCC(=O)O)c2)c(OC)c1 [Rigosertib],33.3,23,27.4,32.7,26.2,30.4
O=C(c1ccc(F)c(F)c1Nc1ccc(I)cc1F)N1CC(O)([C@@H]2CCCCN2)C1 [Cobimetinib],0,18.9,19.2,0,19.4,0
